# Data from the RNAGym collection of RNA variant scans (doi:10.7554/elife.90254).
# The source gives no read counts; variants with many changes may rest on few reads.
# B1: LINE1-mini (parent)
# chain: GGCAGAGCUCAACACAGCGUGGCAAAGUGGCUGUGGCUAGACUGCC
# Variants of: B1
# Test: self-cleavage, relative activity (ratio to wild type); higher = more cleavage; in vitro, sequencing; the parent is a self-cleaving ribozyme
row,Variant,self-cleavage
1,GGCUGAGCUCAACACAGCGUGGCAAACUGGCGGUGGCUAGACUGCC [A4U G27C U32G],0.02
2,GACAGAGCUCAACACAGCGUGUCAAAGUGGCUUUGGCAAGACUGCC [G2A G22U G33U U38A],0.07
3,GGUAGAGCUCAACACAGGGUGGCAAAGUGGCUGUGGCUAGCCUGCC [C3U C18G A41C],0.04
4,GGCAGACCUUAACACAGCGUGGCAGGGUGGUUGUGGCUAGACUGCC [G7C C10U A25G A26G C31U],0.01
5,GGCAUAGCUUAACACAGCGUGGCAAAGUGGUUGUGGCUAGACUGCC [G5U C10U C31U],0.07
6,GGCCGAGCUCAACACAGCGUUGCCAAGUGGCUGUGGCUAUACUGCC [A4C G21U A24C G40U],0.03
7,GGCAGAGCUCAACACAGCGUGGCAAAUUGGCCGUGGAUAGACUGCU [G27U U32C C37A C46U],0.03
8,GGCAGAGCUCAACACAGCGUGGUAAAGUGGCUGUAGCUAGACUGCA [C23U G35A C46A],0.05
9,GGCAGAGGUCAACACAGCUUGUCAAAGUGGCUGUGGCUAGACUGCC [C8G G19U G22U],0.02
10,GGCAGAGCCCAGCACCGCGUGGCAAAGUGGCUGUGCCUAGACUGCC [U9C A12G A16C G36C],0.01
11,GGCAUAGCUCAACACAGCGUGCCAAAGUGGCUGUGGCUAGACUGAC [G5U G22C C45A],0.03
12,GGCAGAGCUCAACACAUCGGGGCAAAGUGGAUGUGGCUAGAGUGCC [G17U U20G C31A C42G],0.04
13,GGCAGAGCUCAAGACAGCGUGGCAAGGUGGCUGUGGCUAGAAUGCC [C13G A26G C42A],0.62
14,GGCAGAGCUGACCACACCGUGGCACAGUGGAUGUGGCUAGACUUCC [C10G A12C G17C A25C C31A G44U],0
15,GGCCGAGCCCAACACAGCGUGGCAAAGUGCCUGUGGAUAGACUGUC [A4C U9C G30C C37A C45U],0.84
16,GUCAGUGCGCAACACAGCGUGGCAAAGUGGCUGUCGCUAGACUGCC [G2U A6U U9G G35C],0.07
17,GGCAGAGCUCAACACAGCGUGGCAUAGAGCCUGUGACUAUACUGCC [A25U U28A G30C G36A G40U],0.07
18,AGCAGAGCUCAACACUGCGUGGCAAAGUGGCUUUGGCUAGACUGCC [G1A A16U G33U],0.07
19,GGCAGAGCUCAACACAGCGUAACAAAGUGGCUGUGGCUAGACAGUC [G21A G22A U43A C45U],0.71

row,Variant,self-cleavage
1,GGUAGAGCUCAACAUAGCGUGGCAACGUGGCUGUGGCUAGACUGCC [C3U C15U A26C],0.5
2,GGCAGAGCUCAACACAGCGUGGCCAAGAGUCUGUGGCUAGAAUGCC [A24C U28A G30U C42A],0.04
3,GGCAGAGCUGUACACUGCGUGGCAAAGUGGCUAUGGCUAGACUGCC [C10G A11U A16U G33A],0.01
4,GGCAGAGCUCAACACAGCGUGACAAAGUGGCUGUGUCUGGACUGCC [G22A G36U A39G],0.04
5,GGUAGAGCUUAACACAGCGUGGCAACAUGGCUGUUACUAGACUGCC [C3U C10U A26C G27A G35U G36A],0
6,GGCAGAGCUCAACAAAGCGUGGCAAAGUGGCUGUGGCUAGUCUGCG [C15A A41U C46G],0.03
7,GGCAAAGCUCAACACAGCGUGGCAAAAUGGCUGUGGUUAGACUGCC [G5A G27A C37U],0.48
8,AGCAGAGCUCCACACAGCGUCGCAAAGUGGCUGUGGCUAGACUGCC [G1A A11C G21C],0.05
9,GGCUGAGCUCAACACAACGUGGCAAAGUGGCUGUCGCGAGACUGCC [A4U G17A G35C U38G],0.05
10,GGGAGAGCUCAACACUGCGCGGCAAAGUUGCUGUGGCUAGACUGCC [C3G A16U U20C G29U],0.15
11,GGCAGAGCUCAACACAGCGUGACAAAGUGGAUGUGUCUAGACUGCC [G22A C31A G36U],0.04
12,GGCAGAACUCAACACAGUCUGGCAAAGUGGCUGUGGCUAGACUGCC [G7A C18U G19C],0.06
13,GGCAGAGCUCUUCACCGCGUGGCAAAGUGGCUGUGGCUAGACUGCC [A11U A12U A16C],0.02
14,GUCAGAGAUCAACAUAGCGUGGCAAAGUGACCGUGGCUAGACUGCC [G2U C8A C15U G30A U32C],0.05
15,GGCAGAGCUCAACACAGCGUGGCAAAGUGGCUAUGGCUAGCCUGUC [G33A A41C C45U],0.09
16,GGCAGUGUUCAACCCAGCGUGACAAAGUGGCUGUGGCUAGACUGCC [A6U C8U A14C G22A],0.08
17,GGCAGAGCUCAACACAGCGUGGCAAAGUGGCUGUGGCGAGAAGGAC [U38G C42A U43G C45A],0.01
18,GGCAGAGCGCAACACGGCGUGGCAAAGUGGCUGUGACUAGACUGCC [U9G A16G G36A],0.02
19,GGCAGAACUCAUCACAGCGUGGCAAAGUGGCUGUGUCUAGACUGCC [G7A A12U G36U],0.12

row,Variant,self-cleavage
1,GGCAGAGCUCAACACAGCGUGGCAAGGUGGCUGUGGCUAGACAACG [A26G U43A G44A C46G],0.01
2,GGCAUAGCUCAAGACAGCGUGGCAAAGUUGCUGUGGCUAGACUGCC [G5U C13G G29U],0.09
3,GGGAGAGCUGAAAACAAAGUGGCUAGGUGGCAGUGGCCAGACUGCC [C3G C10G C13A G17A C18A A24U A26G U32A U38C],0
4,GGCAGAGCUCAAAACAGCGGGGCAAAUUGGCUUUGGUUAGACUGCC [C13A U20G G27U G33U C37U],0.07
5,GGCAGAGGUCAACACAGCGUGGCUAAGUGGCUGUGGCUAGACUCCC [C8G A24U G44C],0.06
6,GGCGGAGCUCAACACAGCGUGGCAAAGUGGCUCUGGCUAGGCUGCC [A4G G33C A41G],0.1
7,GGUAGAGCUCAACACAGAGUGGCAAAGUGUCUGUGGCGAGACUGCC [C3U C18A G30U U38G],0.03
8,GGCAGAGCACAACACAGCGUCGCAAAGUGGCCAUGCCUAGAAUGCC [U9A G21C U32C G33A G36C C42A],0.03
9,GGCUGAGAUCAACACUGCGUGGCAAAGUGGCUGGCGCUCUACUGCC [A4U C8A A16U U34G G35C A39C G40U],0.11
10,GGCAGACCUCCACACAGCGUGACAAAAUCGCUGUGGCUAGACCGCC [G7C A11C G22A G27A G29C U43C],0.01
11,GGCAGAGCUCAGCACAGCGUGGCAAAGUGGCUCUGGCUAGCCUGCC [A12G G33C A41C],0.01
12,GGCAGAGAUCAACACAGCGUGUCAAAGUGGCUGUGGCUAGAUUGCC [C8A G22U C42U],0.07
13,GGCAGAGCUCAACACAGCGUGGCAGAGUGACUGUGGCCAGACUGGC [A25G G30A U38C C45G],0.01
14,CGCAGAUCUCAACAUAGCGUGGCAAAGUGGCUGUGGCUAGACUGCC [G1C G7U C15U],0.02
15,GGAAGAGCUUAACACAGCGUGGCAAAGUGGCUGUGGCUAGCCUGCC [C3A C10U A41C],0.13
16,GGCAGAGCUCAACGCAGCGUGUCAACGUGGCUGUGUCUAGACUGCC [A14G G22U A26C G36U],0.18
17,GGCAGAGCUCAACACAGCGUGGCAAAGUGGCGGAGGCUAGAAUGCC [U32G U34A C42A],0.03
18,GGCAGAGCUCAACACAGAGUGCCAAAGUGGCUGUGGCUGGACUGCC [C18A G22C A39G],0.09
